# Some of the results follow.
# How the values were obtained:
# Experiment in all cases: glycan array binding signal (z-score within array); higher = stronger binding
# Conditions in all cases: glycan notation: IUPAC condensed, linker removed
# Neu5Ac(a2-6)GalNAc = target: Neu5Ac(a2-6)GalNAc
# Method in brief: (§1)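 From the Consortium for Functional Glycomics database, 3228 arrays were curated, keeping only those whose protein sequence was available. Binding is given as a within-array Z-score averaged across arrays sharing a protein sequence and across linkers. Negative Z-scores can be read as non-binding.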
# [1] = target: Neu5Ac(a2-6)GalNAc(b1-4)GlcNAc
# Method in brief: as §1
# [2] = target: Neu5Ac(a2-6)GlcNAc(b1-4)GlcNAc
# Method in brief: as §1
# [3] = target: Neu5Ac(a2-6)GlcNAc(b1-4)GlcNAc(b1-4)GlcNAc
# Method in brief: as §1
# Neu5Ac(a2-8)Neu5Ac = target: Neu5Ac(a2-8)Neu5Ac
# Method in brief: as §1
# [4] = target: Neu5Ac(a2-8)Neu5Ac(a2-3)Gal(b1-4)Glc
# Method in brief: as §1
# [5] = target: Neu5Ac(a2-8)Neu5Ac(a2-3)[GalNAc(b1-4)]Gal(b1-4)Glc
# Method in brief: as §1
# [6] = target: Neu5Ac(a2-8)Neu5Ac(a2-8)Neu5Ac
# Method in brief: as §1
# [7] = target: Neu5Ac(a2-8)Neu5Ac(a2-8)Neu5Ac(a2-3)Gal(b1-4)Glc
# Method in brief: as §1
# [8] = target: Neu5Ac(a2-8)Neu5Ac(a2-8)Neu5Ac(a2-3)[GalNAc(b1-4)]Gal(b1-4)Glc
# Method in brief: as §1
# [9] = target: Neu5Ac(a2-8)Neu5Ac(a2-8)Neu5Ac(a2-8)Neu5Ac(a2-3)[GalNAc(b1-4)]Gal(b1-4)Glc
# Method in brief: as §1
# Neu5Ac(b1-6)GalNAc = target: Neu5Ac(b1-6)GalNAc
# Method in brief: as §1
# [10] = target: Neu5Ac(b2-6)Gal(b1-4)GlcNAc
# Method in brief: as §1
# Neu5Ac(b2-6)GalNAc = target: Neu5Ac(b2-6)GalNAc
# Method in brief: as §1
# [11] = target: Neu5Ac9Ac(a2-3)Gal(b1-3)GlcNAc
# Method in brief: as §1
# [12] = target: Neu5Ac9Ac(a2-3)Gal(b1-4)GlcNAc
# Method in brief: as §1
# [13] = target: Neu5Ac9Ac(a2-6)Gal(b1-4)GlcNAc
# Method in brief: as §1
# [14] = target: Neu5Gc(a2-3)Gal(b1-3)GlcNAc
# Method in brief: as §1
# [15] = target: Neu5Gc(a2-3)Gal(b1-3)[Fuc(a1-4)]GlcNAc
# Method in brief: as §1
# Neu5Gc(a2-3)Gal(b1-4)Glc = target: Neu5Gc(a2-3)Gal(b1-4)Glc
# Method in brief: as §1
# [16] = target: Neu5Gc(a2-3)Gal(b1-4)GlcNAc
# Method in brief: as §1
# [17] = target: Neu5Gc(a2-3)Gal(b1-4)[Fuc(a1-3)]GlcNAc
# Method in brief: as §1
# [18] = target: Neu5Gc(a2-6)Gal(b1-4)GlcNAc
# Method in brief: as §1
# Neu5Gc(a2-6)GalNAc = target: Neu5Gc(a2-6)GalNAc
# Method in brief: as §1
# [19] = target: Neu5Gc(b2-6)Gal(b1-4)GlcNAc
# Method in brief: as §1
binder,measurement,setting,value
"CLEC-1 (Homo sapiens), Q9NZH3 (protein) MQAKYSSTRDMLDDDGDTTMSLHSQASATTRHPEPRRTEHRAPSSTWRPVALTLLTLCLVLLIGLAAWGLLFFQYYQLSNTGQDTISQMEERLGNTSQELQSLQVQNIKLAGSLQHVAEKLCRELYNKAGAHRCSPCTEQWKWHGDNCYQFYKDSKSWEDCKYFCLSENSTMLKINKQEDLEFAASQSYSEFFYSYWTGLLRPDSGKAWLWMDGTPFTSELFHIIIDVTSPRSRDCVAILNGMIFSKDCKELKRCVCERRAGMVKPESLHVPPETLGEGD",glycan array binding signal (z-score),Neu5Ac(a2-6)GalNAc,-0.471
same,glycan array binding signal (z-score),[1],-0.107
same,glycan array binding signal (z-score),[2],0.208
same,glycan array binding signal (z-score),[3],-0.341
same,glycan array binding signal (z-score),Neu5Ac(a2-8)Neu5Ac,-0.318
same,glycan array binding signal (z-score),[4],0.443
same,glycan array binding signal (z-score),[5],-0.106
same,glycan array binding signal (z-score),[6],-0.346
same,glycan array binding signal (z-score),[7],-0.156
same,glycan array binding signal (z-score),[8],-0.15
same,glycan array binding signal (z-score),[9],-0.231
same,glycan array binding signal (z-score),Neu5Ac(b1-6)GalNAc,-0.392
same,glycan array binding signal (z-score),[10],-0.294
same,glycan array binding signal (z-score),Neu5Ac(b2-6)GalNAc,-0.441
same,glycan array binding signal (z-score),[11],-0.305
same,glycan array binding signal (z-score),[12],-0.268
same,glycan array binding signal (z-score),[13],-0.205
same,glycan array binding signal (z-score),[14],-0.313
same,glycan array binding signal (z-score),[15],-0.318
same,glycan array binding signal (z-score),Neu5Gc(a2-3)Gal(b1-4)Glc,-0.362
same,glycan array binding signal (z-score),[16],-0.24
same,glycan array binding signal (z-score),[17],0.294
same,glycan array binding signal (z-score),[18],0.065
same,glycan array binding signal (z-score),Neu5Gc(a2-6)GalNAc,-0.297
same,glycan array binding signal (z-score),[19],0.058
